# Assay results as given in the supplement of paper PMC8728848.
# The other results are listed elsewhere or left out.
# Key:
# Test in all cases: glycan array binding signal (z-score within array); higher = stronger binding
# Settings in all cases: glycan notation: IUPAC condensed, linker removed
# [1] = biological target: Gal(b1-3)GlcNAc(b1-3)Gal(b1-4)[Fuc(a1-3)]GlcNAc(b1-6)[Gal(b1-3)GlcNAc(b1-3)]Gal(b1-4)Glc
# Procedure, shortened: (§1)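 Negative Z-scores can be read as non-binding. The Z-score is calculated within each array and then averaged across arrays of one protein sequence at different concentrations or buffers and across linkers. Arrays, 3228 in all, were curated from the Consortium for Functional Glycomics database and kept only where the protein sequence was available.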
# [2] = biological target: Gal(b1-3)GlcNAc(b1-3)GalNAc
# Procedure, shortened: as §1
# [3] = biological target: Gal(b1-3)GlcNAc(b1-6)Gal(b1-4)GlcNAc
# Procedure, shortened: as §1
# [4] = biological target: Gal(b1-3)GlcNAc(b1-6)GalNAc
# Procedure, shortened: as §1
# [5] = biological target: Gal(b1-3)GlcNAc(b1-6)[Gal(b1-3)]GalNAc
# Procedure, shortened: as §1
# [6] = biological target: Gal(b1-3)GlcNAc6S
# Procedure, shortened: as §1
# [7] = biological target: Gal(b1-3)[Fuc(a1-4)]GlcNAc
# Procedure, shortened: as §1
# [8] = biological target: Gal(b1-3)[Fuc(a1-4)]GlcNAc(b1-2)Man
# Procedure, shortened: as §1
# [9] = biological target: Gal(b1-3)[Fuc(a1-4)]GlcNAc(b1-2)Man(a1-3)[Gal(b1-3)[Fuc(a1-4)]GlcNAc(b1-2)Man(a1-6)]Man(b1-4)GlcNAc(b1-4)[Fuc(a1-6)]GlcNAc
# Procedure, shortened: as §1
# [10] = biological target: Gal(b1-3)[Fuc(a1-4)]GlcNAc(b1-3)Gal(b1-3)[Fuc(a1-4)]GlcNAc
# Procedure, shortened: as §1
# [11] = biological target: Gal(b1-3)[Fuc(a1-4)]GlcNAc(b1-3)Gal(b1-4)GlcNAc
# Procedure, shortened: as §1
# [12] = biological target: Gal(b1-3)[Fuc(a1-4)]GlcNAc(b1-3)Gal(b1-4)[Fuc(a1-3)]GlcNAc
# Procedure, shortened: as §1
# [13] = biological target: Gal(b1-3)[Fuc(a1-4)]GlcNAc(b1-6)GalNAc
# Procedure, shortened: as §1
# [14] = biological target: Gal(b1-3)[GlcNAc(b1-6)]GalNAc
# Procedure, shortened: as §1
# [15] = biological target: Gal(b1-3)[Neu5Ac(a2-6)]GalNAc
# Procedure, shortened: as §1
# [16] = biological target: Gal(b1-3)[Neu5Ac(a2-6)]GlcNAc(b1-4)Gal(b1-4)Glc
# Procedure, shortened: as §1
# [17] = biological target: Gal(b1-3)[Neu5Ac(a2-6)]GlcNAc(b1-6)Gal(b1-4)Glc
# Procedure, shortened: as §1
# [18] = biological target: Gal(b1-3)[Neu5Ac(b2-6)]GalNAc
# Procedure, shortened: as §1
# [19] = biological target: Gal(b1-4)Gal
# Procedure, shortened: as §1
# [20] = biological target: Gal(b1-4)GalNAc(a1-3)[Fuc(a1-2)]Gal(b1-4)GlcNAc
# Procedure, shortened: as §1
# [21] = biological target: Gal(b1-4)GalNAc(b1-3)[Fuc(a1-2)]Gal(b1-4)GlcNAc
# Procedure, shortened: as §1
# [22] = biological target: Gal(b1-4)Glc
# Procedure, shortened: as §1
# [23] = biological target: Gal(b1-4)Glc6S
# Procedure, shortened: as §1
# [24] = biological target: Gal(b1-4)GlcNAc
# Procedure, shortened: as §1
# [25] = biological target: Gal(b1-4)GlcNAc(a1-6)Gal(b1-4)GlcNAc
# Procedure, shortened: as §1
# [26] = biological target: Gal(b1-4)GlcNAc(b1-2)Man
# Procedure, shortened: as §1
# [27] = biological target: Gal(b1-4)GlcNAc(b1-2)Man(a1-3)Man(b1-4)GlcNAc(b1-4)GlcNAc
# Procedure, shortened: as §1
# [28] = biological target: Gal(b1-4)GlcNAc(b1-2)Man(a1-3)[Gal(b1-4)GlcNAc(b1-2)Man(a1-6)]Man(b1-4)GlcNAc(b1-4)GlcNAc
# Procedure, shortened: as §1
# [29] = biological target: Gal(b1-4)GlcNAc(b1-2)Man(a1-3)[Gal(b1-4)GlcNAc(b1-2)Man(a1-6)]Man(b1-4)GlcNAc(b1-4)[Fuc(a1-6)]GlcNAc
# Procedure, shortened: as §1
# [30] = biological target: Gal(b1-4)GlcNAc(b1-2)Man(a1-3)[Gal(b1-4)GlcNAc(b1-2)Man(a1-6)][Gal(b1-4)GlcNAc(b1-4)]Man(b1-4)GlcNAc(b1-4)[Fuc(a1-6)]GlcNAc
# Procedure, shortened: as §1
# [31] = biological target: Gal(b1-4)GlcNAc(b1-2)Man(a1-3)[Gal(b1-4)GlcNAc(b1-2)Man(a1-6)][GlcNAc(b1-4)]Man(b1-4)GlcNAc(b1-4)[Fuc(a1-6)]GlcNAc
# Procedure, shortened: as §1
# [32] = biological target: Gal(b1-4)GlcNAc(b1-2)Man(a1-3)[GlcNAc(b1-2)Man(a1-6)]Man(b1-4)GlcNAc(b1-4)GlcNAc
# Procedure, shortened: as §1
# [33] = biological target: Gal(b1-4)GlcNAc(b1-2)Man(a1-3)[GlcNAc(b1-4)][Gal(b1-4)GlcNAc(b1-2)Man(a1-6)]Man(b1-4)GlcNAc(b1-4)GlcNAc
# Procedure, shortened: as §1
# [34] = biological target: Gal(b1-4)GlcNAc(b1-2)Man(a1-3)[Man(a1-6)]Man(b1-4)GlcNAc(b1-4)GlcNAc
# Procedure, shortened: as §1
# [35] = biological target: Gal(b1-4)GlcNAc(b1-2)Man(a1-6)Man(b1-4)GlcNAc(b1-4)GlcNAc
# Procedure, shortened: as §1
# [36] = biological target: Gal(b1-4)GlcNAc(b1-2)Man(a1-6)[GlcNAc(b1-2)Man(a1-3)]Man(b1-4)GlcNAc(b1-4)GlcNAc
# Procedure, shortened: as §1
# [37] = biological target: Gal(b1-4)GlcNAc(b1-2)Man(a1-6)[Man(a1-3)]Man(b1-4)GlcNAc(b1-4)GlcNAc
# Procedure, shortened: as §1
# [38] = biological target: Gal(b1-4)GlcNAc(b1-2)[Gal(b1-4)GlcNAc(b1-4)]Man(a1-3)[Gal(b1-4)GlcNAc(b1-2)Man(a1-6)]Man(b1-4)GlcNAc(b1-4)GlcNAc
# Procedure, shortened: as §1
# [39] = biological target: Gal(b1-4)GlcNAc(b1-2)[Gal(b1-4)GlcNAc(b1-4)]Man(a1-3)[Gal(b1-4)GlcNAc(b1-2)[Gal(b1-4)GlcNAc(b1-6)]Man(a1-6)]Man(b1-4)GlcNAc(b1-4)GlcNAc
# Procedure, shortened: as §1
# [40] = biological target: Gal(b1-4)GlcNAc(b1-2)[Gal(b1-4)GlcNAc(b1-4)]Man(a1-3)[GlcNAc(b1-4)][Gal(b1-4)GlcNAc(b1-2)Man(a1-6)]Man(b1-4)GlcNAc(b1-4)GlcNAc
# Procedure, shortened: as §1
# [41] = biological target: Gal(b1-4)GlcNAc(b1-2)[Gal(b1-4)GlcNAc(b1-4)]Man(a1-3)[GlcNAc(b1-4)][Gal(b1-4)GlcNAc(b1-2)[Gal(b1-4)GlcNAc(b1-6)]Man(a1-6)]Man(b1-4)GlcNAc(b1-4)GlcNAc
# Procedure, shortened: as §1
# [42] = biological target: Gal(b1-4)GlcNAc(b1-2)[Gal(b1-4)GlcNAc(b1-6)]Man(a1-6)[Gal(b1-4)GlcNAc(b1-2)Man(a1-3)]Man(b1-4)GlcNAc(b1-4)GlcNAc
# Procedure, shortened: as §1
# [43] = biological target: Gal(b1-4)GlcNAc(b1-2)[Gal(b1-4)GlcNAc(b1-6)]Man(a1-6)[Gal(b1-4)GlcNAc(b1-2)Man(a1-3)]Man(b1-4)GlcNAc(b1-4)[Fuc(a1-6)]GlcNAc
# Procedure, shortened: as §1
# [44] = biological target: Gal(b1-4)GlcNAc(b1-2)[Gal(b1-4)GlcNAc(b1-6)]Man(a1-6)[GlcNAc(b1-4)][Gal(b1-4)GlcNAc(b1-2)Man(a1-3)]Man(b1-4)GlcNAc(b1-4)GlcNAc
# Procedure, shortened: as §1
# [45] = biological target: Gal(b1-4)GlcNAc(b1-2)[Gal(b1-4)GlcNAc(b1-6)]Man(a1-6)[GlcNAc(b1-4)][Gal(b1-4)GlcNAc(b1-2)[Gal(b1-4)GlcNAc(b1-4)]Man(a1-3)]Man(b1-4)GlcNAc(b1-4)[Fuc(a1-6)]GlcNAc
# Procedure, shortened: as §1
binder,measurement,setting,value
"MAA (Maackia amurensis), P0DKL3 (protein) MATSNSKPTQVLLATFLTFFFLLLNNVNSSDELSFTINNFVPNEADLLFQGEASVSSTGVLQLTRVENGQPQKYSVGRALYAAPVRIWDNTTGSVASFSTSFTFVVKAPNPDITSDGLAFYLAPPDSQIPSGSVSKYLGLFNNSNSDSSNQIVAVELDTYFAHSYDPWDPNYRHIGIDVNGIESIKTVQWDWINGGVAFATITYLAPNKTLIASLVYPSNQTTFSVAASVDLKEILPEWVRVGFSAATGYPTEVETHDVLSWSFTSTLEANCDAATENNVHIARYTA",glycan array binding signal (z-score),[1],-0.145
same,glycan array binding signal (z-score),[2],-0.209
same,glycan array binding signal (z-score),[3],-0.239
same,glycan array binding signal (z-score),[4],-0.258
same,glycan array binding signal (z-score),[5],-0.214
same,glycan array binding signal (z-score),[6],-0.338
same,glycan array binding signal (z-score),[7],-0.217
same,glycan array binding signal (z-score),[8],-0.144
same,glycan array binding signal (z-score),[9],0.008
same,glycan array binding signal (z-score),[10],-0.278
same,glycan array binding signal (z-score),[11],-0.239
same,glycan array binding signal (z-score),[12],-0.212
same,glycan array binding signal (z-score),[13],0.11
same,glycan array binding signal (z-score),[14],-0.157
same,glycan array binding signal (z-score),[15],-0.241
same,glycan array binding signal (z-score),[16],-0.262
same,glycan array binding signal (z-score),[17],-0.252
same,glycan array binding signal (z-score),[18],-0.219
same,glycan array binding signal (z-score),[19],-0.137
same,glycan array binding signal (z-score),[20],-0.17
same,glycan array binding signal (z-score),[21],-0.249
same,glycan array binding signal (z-score),[22],-0.176
same,glycan array binding signal (z-score),[23],0.402
same,glycan array binding signal (z-score),[24],-0.22
same,glycan array binding signal (z-score),[25],-0.212
same,glycan array binding signal (z-score),[26],-0.24
same,glycan array binding signal (z-score),[27],-0.232
same,glycan array binding signal (z-score),[28],-0.204
same,glycan array binding signal (z-score),[29],-0.248
same,glycan array binding signal (z-score),[30],-0.243
same,glycan array binding signal (z-score),[31],-0.262
same,glycan array binding signal (z-score),[32],-0.23
same,glycan array binding signal (z-score),[33],-0.175
same,glycan array binding signal (z-score),[34],-0.206
same,glycan array binding signal (z-score),[35],-0.229
same,glycan array binding signal (z-score),[36],-0.226
same,glycan array binding signal (z-score),[37],-0.138
same,glycan array binding signal (z-score),[38],-0.036
same,glycan array binding signal (z-score),[39],-0.205
same,glycan array binding signal (z-score),[40],-0.28
same,glycan array binding signal (z-score),[41],-0.198
same,glycan array binding signal (z-score),[42],-0.196
same,glycan array binding signal (z-score),[43],-0.234
same,glycan array binding signal (z-score),[44],-0.256
same,glycan array binding signal (z-score),[45],-0.264
